According to the supplement of paper PMC4604168 (melanoma cell lines):
Some of the results follow. Repeats are few or missing, and single values can be far off.

Legend:
Assay in all cases: cell count relative to DMSO control; melanoma cells; higher = more viable cells
Conditions in all cases: library dose: low library concentration; 72 h
[1] = test system: WM115
[2] = test system: WM1716
[3] = test system: WM1745
[4] = test system: WM3526
[5] = test system: WM3619
[6] = test system: WM451Lu
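Also: cell number obtained by counting DAPI-stained nuclei in high-throughput microscope images with image analysis software, screen run in 1,536-well plates.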

## NCC(=O)Nc1ccc(-n2nc(C(F)(F)F)cc2-c2ccc3c(ccc4ccccc43)c2)cc1 + O=c1cc(-c2cccc3c2Sc2ccccc2S3)oc(N2CCOCC2)c1 [KU55933] (first compound 1 µM, partner dose 1 µM)
[1]
  cell count: 106%
[2]
  cell count: 97.4%
[3]
  cell count: 111%
[4]
  cell count: 42.2%
[5]
  cell count: 111%
[6]
  cell count: 61.8%

## OCCn1cc(-c2cnc3nnn(Cc4ccc5ncccc5c4)c3n2)cn1 + Oc1cc(-c2nc(-c3ccccc3)[nH]c2-c2ccncc2)ccc1Cl [L779450] (first compound 1 µM, partner dose 0.2 µM)
[1]
  cell count: 98.4%
[2]
  cell count: 93.7%
[3]
  cell count: 93.2%
[4]
  cell count: 88.9%
[5]
  cell count: 73.2%
[6]
  cell count: 111%

## Cc1nc(Nc2ncc(C(=O)Nc3c(C)cccc3Cl)s2)cc(N2CCN(CCO)CC2)n1 [dasatanib] + Nc1cccc2c1CN(C1CCC(=O)NC1=O)C2=O [lenalidomide] (first compound 0.004 µM, partner dose 1 µM)
[1]
  cell count: 63.7%
[2]
  cell count: 76.6%
[3]
  cell count: 63.5%
[4]
  cell count: 89.1%
[5]
  cell count: 89.5%
[6]
  cell count: 73.3%

## NC(=O)Nc1cc(-c2cccc(F)c2)sc1C(=O)N[C@H]1CCCNC1 + COc1ccc2c(c1)CCC1C2CCC2(C)C(NCCCCCCN3C(=O)C=CC3=O)CCC12 [U73122] (first compound 0.02 µM, partner dose 0.4 µM)
[1]
  cell count: 97.2%
[2]
  cell count: 77.6%
[3]
  cell count: 100%
[4]
  cell count: 105%
[5]
  cell count: 80.6%
[6]
  cell count: 100%

## C[C@]1(c2nc3c(C(N)=O)cccc3[nH]2)CCCN1 [Veliparib] + CCCCCCCCCCCC1=C(O)C(=O)C=C(O)C1=O [Embelin] (first compound 1.4 µM, partner dose 1.2 µM)
[1]
  cell count: 93.7%
[2]
  cell count: 85.6%
[3]
  cell count: 77.2%
[4]
  cell count: 116%
[5]
  cell count: 132%
[6]
  cell count: 84.8%

## CN(C)S(=O)(=O)c1ccc2c(c1)/C(=C/c1cc3c([nH]1)CCCC3)C(=O)N2 + CCCCCCCCCCCC1=C(O)C(=O)C=C(O)C1=O [Embelin] (first compound 0.4 µM, partner dose 1.2 µM)
[1]
  cell count: 81%
[2]
  cell count: 114%
[3]
  cell count: 93.4%
[4]
  cell count: 123%
[5]
  cell count: 111%
[6]
  cell count: 103%

## NCC(=O)Nc1ccc(-n2nc(C(F)(F)F)cc2-c2ccc3c(ccc4ccccc43)c2)cc1 + O=S(=O)(c1ccccc1)N(CC(F)(F)F)c1ccc(C(O)(C(F)(F)F)C(F)(F)F)cc1 [T0901317] (first compound 1 µM, partner dose 1.4 µM)
[1]
  cell count: 88.4%
[2]
  cell count: 89.2%
[3]
  cell count: 84.6%
[4]
  cell count: 49.7%
[5]
  cell count: 82.1%
[6]
  cell count: 61.2%

## C=CCn1c(=O)c2cnc(Nc3ccc(N4CCN(C)CC4)cc3)nc2n1-c1cccc(C(C)(C)O)n1 + COc1cc2c(Oc3ccc4[nH]c(C)cc4c3F)ncnc2cc1OCCCN1CCCC1 [cediranib] (first compound 0.02 µM, partner dose 0.4 µM)
[1]
  cell count: 81%
[2]
  cell count: 103%
[3]
  cell count: 74.2%
[4]
  cell count: 97.2%
[5]
  cell count: 74.9%
[6]
  cell count: 120%

## Cc1nc(Nc2ncc(C(=O)Nc3c(C)cccc3Cl)s2)cc(N2CCN(CCO)CC2)n1 [dasatanib] + COc1ccc(COc2ccc(Cc3cnc(N)nc3N)cc2OC)cc1 [GW2580] (first compound 0.004 µM, partner dose 1 µM)
[1]
  cell count: 81.2%
[2]
  cell count: 67.1%
[3]
  cell count: 60.3%
[4]
  cell count: 109%
[5]
  cell count: 104%
[6]
  cell count: 83.7%

## CO[C@@H]1[C@H](N(C)C(=O)c2ccccc2)C[C@H]2O[C@]1(C)n1c3ccccc3c3c4c(c5c6ccccc6n2c5c31)C(=O)NC4 [Midostaurin] + Cn1cncc1[C@@](N)(c1ccc(Cl)cc1)c1ccc2c(c1)c(-c1cccc(Cl)c1)cc(=O)n2C [tipifarnib] (first compound 0.08 µM, partner dose 0.01 µM)
[1]
  cell count: 57.1%
[2]
  cell count: 64.6%
[3]
  cell count: 87.5%
[4]
  cell count: 104%
[5]
  cell count: 100%
[6]
  cell count: 75.1%

## CN(C)S(=O)(=O)c1ccc2c(c1)/C(=C/c1cc3c([nH]1)CCCC3)C(=O)N2 + O=c1cc(-c2cccc3c2Sc2ccccc2S3)oc(N2CCOCC2)c1 [KU55933] (first compound 0.4 µM, partner dose 1 µM)
[1]
  cell count: 93.7%
[2]
  cell count: 131%
[3]
  cell count: 94.9%
[4]
  cell count: 89.7%
[5]
  cell count: 122%
[6]
  cell count: 103%

## NC(=O)Nc1cc(-c2cccc(F)c2)sc1C(=O)N[C@H]1CCCNC1 + COc1cc2ncnc(Nc3ccc(Oc4ccccc4)cc3)c2cc1OC [SrcI1] (first compound 0.02 µM, partner dose 2 µM)
[1]
  cell count: 97.6%
[2]
  cell count: 102%
[3]
  cell count: 65.2%
[4]
  cell count: 83.6%
[5]
  cell count: 50.2%
[6]
  cell count: 96%

## OCCn1cc(-c2cnc3nnn(Cc4ccc5ncccc5c4)c3n2)cn1 + COc1cc(N2CCC(N3CCN(C)CC3)CC2)ccc1Nc1ncc(Cl)c(Nc2ccccc2S(=O)(=O)C(C)C)n1 [NVP-TAE684] (first compound 1 µM, partner dose 0.08 µM)
[1]
  cell count: 91%
[2]
  cell count: 82.6%
[3]
  cell count: 87.7%
[4]
  cell count: 76.2%
[5]
  cell count: 91.9%
[6]
  cell count: 54.6%

## Cc1nc(Nc2ncc(C(=O)Nc3c(C)cccc3Cl)s2)cc(N2CCN(CCO)CC2)n1 [dasatanib] + Oc1cc(-c2nc(-c3ccccc3)[nH]c2-c2ccncc2)ccc1Cl [L779450] (first compound 0.004 µM, partner dose 0.2 µM)
[1]
  cell count: 57.3%
[2]
  cell count: 78.2%
[3]
  cell count: 67.4%
[4]
  cell count: 74.1%
[5]
  cell count: 106%
[6]
  cell count: 71.6%

## Cc1nc(Nc2ncc(C(=O)Nc3c(C)cccc3Cl)s2)cc(N2CCN(CCO)CC2)n1 [dasatanib] + NC(=O)Nc1cc(-c2cccc(F)c2)sc1C(=O)N[C@H]1CCCNC1 [AZD7762] (first compound 0.004 µM, partner dose 0.02 µM)
[1]
  cell count: 71.1%
[2]
  cell count: 63.9%
[3]
  cell count: 74.5%
[4]
  cell count: 82.6%
[5]
  cell count: 108%
[6]
  cell count: 46.2%

## NC(=O)Nc1cc(-c2cccc(F)c2)sc1C(=O)N[C@H]1CCCNC1 + O=S(=O)(c1ccccc1)N(CC(F)(F)F)c1ccc(C(O)(C(F)(F)F)C(F)(F)F)cc1 [T0901317] (first compound 0.02 µM, partner dose 1.4 µM)
[1]
  cell count: 98.3%
[2]
  cell count: 77.6%
[3]
  cell count: 81.5%
[4]
  cell count: 74.8%
[5]
  cell count: 71.4%
[6]
  cell count: 104%

## C=CCn1c(=O)c2cnc(Nc3ccc(N4CCN(C)CC4)cc3)nc2n1-c1cccc(C(C)(C)O)n1 + O=C1NC(=O)/C(=C/c2ccc(-c3ccc(F)cc3O)o2)S1 [AS252424] (first compound 0.02 µM, partner dose 1 µM)
[1]
  cell count: 103%
[2]
  cell count: 88.1%
[3]
  cell count: 92.3%
[4]
  cell count: 90.1%
[5]
  cell count: 89.9%
[6]
  cell count: 127%

## OCCn1cc(-c2cnc3nnn(Cc4ccc5ncccc5c4)c3n2)cn1 + COC(=O)c1sccc1S(=O)(=O)Nc1ccc(Nc2ccccc2)cc1OC [GSK0660] (first compound 1 µM, partner dose 1 µM)
[1]
  cell count: 107%
[2]
  cell count: 105%
[3]
  cell count: 99.4%
[4]
  cell count: 96%
[5]
  cell count: 110%
[6]
  cell count: 102%

## OCCn1cc(-c2cnc3nnn(Cc4ccc5ncccc5c4)c3n2)cn1 + O=C1NC(=O)/C(=C/c2ccc(-c3ccc(F)cc3O)o2)S1 [AS252424] (first compound 1 µM, partner dose 1 µM)
[1]
  cell count: 98.1%
[2]
  cell count: 89.9%
[3]
  cell count: 106%
[4]
  cell count: 88%
[5]
  cell count: 69.8%
[6]
  cell count: 91.9%

## NCC(=O)Nc1ccc(-n2nc(C(F)(F)F)cc2-c2ccc3c(ccc4ccccc43)c2)cc1 + COc1cc2ncnc(Nc3ccc(Oc4ccccc4)cc3)c2cc1OC [SrcI1] (first compound 1 µM, partner dose 2 µM)
[1]
  cell count: 94%
[2]
  cell count: 100%
[3]
  cell count: 97.7%
[4]
  cell count: 56.1%
[5]
  cell count: 90.3%
[6]
  cell count: 51.3%

## C=CCn1c(=O)c2cnc(Nc3ccc(N4CCN(C)CC4)cc3)nc2n1-c1cccc(C(C)(C)O)n1 + CN(NC(=O)CC(=O)NN(C)C(=S)c1ccccc1)C(=S)c1ccccc1 [STA4783] (first compound 0.02 µM, partner dose 0.006 µM)
[1]
  cell count: 74%
[2]
  cell count: 83%
[3]
  cell count: 36.9%
[4]
  cell count: 95.1%
[5]
  cell count: 59.8%
[6]
  cell count: 89.8%

## CO[C@@H]1[C@H](N(C)C(=O)c2ccccc2)C[C@H]2O[C@]1(C)n1c3ccccc3c3c4c(c5c6ccccc6n2c5c31)C(=O)NC4 [Midostaurin] + OCCn1cc(-c2cnc3nnn(Cc4ccc5ncccc5c4)c3n2)cn1 [PF04217903] (first compound 0.08 µM, partner dose 1 µM)
[1]
  cell count: 115%
[2]
  cell count: 119%
[3]
  cell count: 98.3%
[4]
  cell count: 114%
[5]
  cell count: 109%
[6]
  cell count: 106%

## C=CCn1c(=O)c2cnc(Nc3ccc(N4CCN(C)CC4)cc3)nc2n1-c1cccc(C(C)(C)O)n1 + CN(C)S(=O)(=O)c1ccc2c(c1)/C(=C/c1cc3c([nH]1)CCCC3)C(=O)N2 [SU6656] (first compound 0.02 µM, partner dose 0.4 µM)
[1]
  cell count: 74%
[2]
  cell count: 97.5%
[3]
  cell count: 85.9%
[4]
  cell count: 89%
[5]
  cell count: 78.2%
[6]
  cell count: 101%

## Cc1nc(Nc2ncc(C(=O)Nc3c(C)cccc3Cl)s2)cc(N2CCN(CCO)CC2)n1 [dasatanib] + COc1ccc2c(c1)CCC1C2CCC2(C)C(NCCCCCCN3C(=O)C=CC3=O)CCC12 [U73122] (first compound 0.004 µM, partner dose 0.4 µM)
[1]
  cell count: 72.3%
[2]
  cell count: 62.5%
[3]
  cell count: 61.6%
[4]
  cell count: 91.7%
[5]
  cell count: 84%
[6]
  cell count: 83.6%

## NCC(=O)Nc1ccc(-n2nc(C(F)(F)F)cc2-c2ccc3c(ccc4ccccc43)c2)cc1 + Cn1cc(/C=C2\C(=O)Nc3cccnc32)c2ccccc21 [GW441756] (first compound 1 µM, partner dose 0.4 µM)
[1]
  cell count: 99.9%
[2]
  cell count: 110%
[3]
  cell count: 84.4%
[4]
  cell count: 38.8%
[5]
  cell count: 125%
[6]
  cell count: 46.5%

## CN(C)S(=O)(=O)c1ccc2c(c1)/C(=C/c1cc3c([nH]1)CCCC3)C(=O)N2 + COc1ccc(-c2ccc3c(N4CCOCC4)nc(N4C[C@@H](C)O[C@@H](C)C4)nc3n2)cc1CO [KU0063794] (first compound 0.4 µM, partner dose 0.02 µM)
[1]
  cell count: 68.3%
[2]
  cell count: 103%
[3]
  cell count: 87.6%
[4]
  cell count: 92.9%
[5]
  cell count: 86.8%
[6]
  cell count: 112%
